# Laboratory results from the RNAGym collection of RNA variant scans (doi:10.7554/elife.90254).
# Read counts are not given, so values of variants with three or more changes are uncertain.
# B1: LINE1-mini (parent)
# chain: GGCAGAGCUCAACACAGCGUGGCAAAGUGGCUGUGGCUAGACUGCC
# Variants of: B1
# Assay: self-cleavage, relative activity (ratio to wild type); higher = more cleavage; in vitro, sequencing; the parent is a self-cleaving ribozyme
row,Variant,self-cleavage
1,A6C G22U C23U G44A C45A,0.03
2,G5U U9C U20G C45A,0.02
3,A6C C23U G29U C37G C42U,0.01
4,G5U U9C G27U G30A C45U C46U,0.04
5,A6C C15G G19U G44A,0.03
6,A6C G7U G21U,0.01
7,G5U U9G C13U C15G A16U,0.14
8,A6C C8G C10U A12C U28G G36C C42G,0
9,G5U U28A U34G C42A,0.03
10,A6C C8A C23G G30U,0.07
11,A6C G19A C31A,0.21
12,A6C G19C G33C G40U U43C,0.04
13,G5U U9C G17U G36U C37A,0.02
14,A6C C8A U28A,0.21
15,A6C G22C C31U,0.23
16,A6C C15U U34A,0.11
17,A6C C10A C18U U38A,0.08
18,G5U U34C G44A,0.04
19,A6C A11C C18G G21U C23A A25G U38C U43A,0.02
20,A6C G17U C37A G44A,0.04
21,A6C A11U C13U A39U,0.06
22,A6C C10U C31U,0.03
23,A6C A11U G19U,0.21
24,G5U U20G G21C A25G,0.1

row,Variant,self-cleavage
1,G5U U9C C31A,0.03
2,A6C C15A G21A,0.06
3,A6C G7C A16G C18U A25U U34A G36C A41U,0.13
4,A6C A16C G30A,0.05
5,A6C C13G U38G,0.01
6,A6C C18A C46A,0.13
7,A6C G7A C8G G21A,0.07
8,A6C C31A C46G,0.05
9,A6C C10U G17A U34A G36U,0.06
10,A6C A12G G29U,0.07
11,A6C C8A U9G A11U C31G C42U,0
12,A6C C10A G22A A25C G29C C45A,0.01
13,A6C U9A C13G A25C C31U G36U C37U,0.6
14,A6C C13A A41U,0.1
15,A6C G22C G29U C31A G40U,0.02
16,A6C G7C G44C,0.08
17,A6C C13A C15G A24C,0.02
18,A6C A25C G30C,0.22
19,A6C C8U A26C C31G,0.06
20,A6C C8A U20A C31A G33U G44U,0.03
21,A6C A11G C31U U38A A41C C45U,0
22,A6C G30A G40C,0.04
23,A6C A25C C37A A41U,0.19
24,A6C C10G A12C C15G A16C C18A G19A A41U,0.02

row,Variant,self-cleavage
1,A6C C10A A11C G30U G44U C45U,0
2,A6C A11C A25C C31U G35C G36C,0
3,A6C C10A A39G,0.03
4,G5U U43G G44C C46A,0
5,A6C C8G U20G,0.02
6,A6C G19C G44A,0.06
7,A6C U9C A11G C45G,0.01
8,A6C G7C A25U A39U,0.11
9,A6C C8A C42A G44A,0.12
10,A6C C15G G29U,0.03
11,G5U U9G G44C,0.04
12,A6C G33U U34G,0.05
13,G5U U9C U32A,0.04
14,A6C G21U G22U G29A C42A,0.07
15,A6C A14U U20C G27C C31A G36U,0.05
16,A6C C8A G36C,0.06
17,A6C A26U U43A,0.06
18,G5U U9A G30U,0.03
19,A6C G35U G36U A39C,0.04
20,A6C C8A G33U C46A,0.29
21,G5U U9C G40A,0.02
22,G5U U34A C42A,0.04
23,A6C G19A G27C,0.35
24,A6C C10A G21A U28G,0.01

row,Variant,self-cleavage
1,A6C G27A G33A G35A G40U,0.04
2,G5U U9G A12C G29U C45A,0.01
3,A6C C18A A24C A25U G36C C46U,0.06
4,A6C C10G G19U,0.03
5,A6C G7U G27A G33A,0.19
6,A6C A12G A41G,0.06
7,A6C A11U U43C C45U,0
8,A6C G22U G33U G36A G44A,0.04
9,A6C C10U C15G C31A,0.05
10,A6C C8A A12U U20G,0.14
11,A6C C15G G27U G33C G36U G40U,0.33
12,G5U U9G G27U,0.12
13,A6C C37G A39G C42U C46A,0.03
14,A6C G17U U20G A26U G27C G30U,0.07
15,A6C G19U U38A,0.08
16,A6C C15G U20A A39U,0.02
17,A6C A12U A26U,0.26
18,G5U U28C C37U C46A,0
19,G5U U20C U38C A39U C45A,0.01
20,A6C A11U A14G,0.04
21,A6C C13U G22A G35U A41G,1.37
22,A6C C37A A41G,0.03
23,A6C C15G G19A C37G G44U,0.01
24,A6C A14G C23U C37A,0.09

row,Variant,self-cleavage
1,A6C A12U C13U,0.05
2,A6C G30A C37G,0.03
3,A6C G7A A16G U20C A26U C46A,0.04
4,A6C G19U U28G G40A C46A,0.2
5,A6C G35U C46A,0.02
6,A6C C10A A25C G29C C45G,0.08
7,A6C A12G C13A G22U,0.09
8,G5U U20A C23G A25U G27C C37U G40U,0.01
9,A6C C15G G19U G22U C45A,0.02
10,A6C A11C G44C,0.01
11,A6C G35A G40U,0.11
12,A6C G29C G33A G44A,0.02
13,A6C C13A U34C,0.06
14,A6C A11C G35A C37G,0.02
15,A6C G7A A16C A25G G33A C45U,0.01
16,A6C G19U A25G G27C G29A C42G,0.02
17,A6C A16U C18G C42U,0.01
18,A6C C8U C13G G21U G22C G40U,0.04
19,A6C C18U G22U A26C G29U G30C,0.85
20,G5U U38A C46U,0.05
21,A6C A14C G17A A26G C45A,0
22,G5U U20A G22U,0.18
23,G5U U9G C18A,0.03
24,A6C C10A U28A C46U,0.02

row,Variant,self-cleavage
1,G5U U32A G36U,0.47
2,G5U U28A G29U,0.04
3,G5U U34C G35U,0.08
4,A6C G7U U20G A26G G29C G30C A39U C42A,0.02
5,A6C C10U A41G,0.02
6,A6C G17A C31A G36U C42G,0.01
7,A6C A12U A14C C18U C37A C46A,0
8,A6C A14G G17U,0.14
9,A6C G27A C37U,0
10,A6C U9A A25G G27A,0.06
11,G5U U20C A25G G36A,0.06
12,A6C C10A C31A A41U,0.02
13,G5U U20G C23G G36A,0.16
14,A6C G22A C37A,0.01
15,A6C A11U A12C G22C,0.02
16,G5U U9A G27C U38G,0.13
17,A6C C10A G27C C46U,0.02
18,A6C G21C G29A,0.28
19,A6C C10G C13U G40U,0.02
20,A6C G19A G30U C46G,0.36
21,A6C A11G C23U C37G,0.01
22,A6C A14U C31A G44C,0.07
23,A6C G17U U43A,0.08
24,A6C A14G C42U,0.04

row,Variant,self-cleavage
1,A6C A14G C42G,0
2,A6C A11C A12G,0.11
3,G5U U9A C18A,0.11
4,A6C C8A G33U G36A G40A,0.16
5,G5U U9C C46U,0.03
6,A6C C10G G30C,0.01
7,A6C U9A A39C,0.08
8,A6C A12C C23A A26C,0.02
9,A6C C13U U28A,0.09
10,A6C G21A G22A U32G,0.18
11,A6C C18U G30A,1.11
12,G5U U9C U20A C46U,0.01
13,A6C C8U A25G A39U,0.17
14,A6C U9A A12U,0.29
15,A6C G19A G22C U43G,0
16,G5U U28C C31A U38G C46G,0.02
17,A6C A11G C46A,0.02
18,G5U U32G C45G,0.1
19,G5U U38A A41U,0.08
20,A6C C23G C31G G35U,0.05
21,A6C C18A A25U C46A,0.05
22,A6C G36C G40A,0.15
23,A6C G35U U43A,0.09
